Some of the results follow.

In this experiment the target is T1, MBP-FoxP1dN (Mus musculus, UniProt P58462 326-579).
T1 sequence: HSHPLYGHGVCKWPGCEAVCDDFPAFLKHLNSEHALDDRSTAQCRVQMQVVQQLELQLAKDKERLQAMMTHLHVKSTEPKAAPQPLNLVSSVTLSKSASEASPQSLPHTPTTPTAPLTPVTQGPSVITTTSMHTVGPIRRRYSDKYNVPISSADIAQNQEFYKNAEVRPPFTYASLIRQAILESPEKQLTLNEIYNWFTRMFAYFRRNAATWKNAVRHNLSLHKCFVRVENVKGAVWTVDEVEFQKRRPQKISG
Nature of the experiment: PD-seq (MBP pull-down with sequencing); 20 mM Tris-HCl pH 7.5, 100 mM NaCl, 1.5 mM MgCl2, 0.4 uM protein, 0.1 uM dsDNA library, 30 min, room temperature, amylose pull-down; high values mean tight binding. To be noted: protein: recombinant; tags: His6-MBP; chain copies: 2; dsDNA, one strand shown. An outline of the steps: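 Mouse FoxP3 or FoxP1 fragment lacking the N-terminus, His6-MBP-tagged and expressed in E. coli, was incubated at 0.4 µM with 0.1 µM Klenow-filled degenerate double-stranded DNA library for 30 min at room temperature in Tris pH 7.5 buffer with NaCl and MgCl2. Complexes captured on amylose resin were washed three times and their DNA sequenced on Illumina. Binding is reads-per-million enrichment of pull-down over input, replicates pooled.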
On to “GATGATTGTTCTCCCAGCTGATGAATTTCTTTGGTCGAGTAAACAAATTTTCCTAATCTTTCTGTTCAAGCGCCATCTAC”, for which the binding signal was 0.881 RPM ratio (pull-down/input). As for “GATGATTGTTCTCCCAGCTGATGAATTAGTAACGTCGAGTAAACAAATTTTCCTAATCTTTCTGTTCAAGCGCCATCTAC”, the binding signal is 0.99 RPM ratio (pull-down/input). The value for “GATGATTGTTCTCCCAGCTGATGAATTTTGTGTCTCGAGTAAACAAATTTTCCTAATCTTTCTGTTCAAGCGCCATCTAC” was 1.27 RPM ratio (pull-down/input). The result for “GATGATTGTTCTCCCAGCTGATGAATTCACAACTTCGAGTAAACAAATTTTCCTAATCTTTCTGTTCAAGCGCCATCTAC” reads 0.994 RPM ratio (pull-down/input). As for “GATGATTGTTCTCCCAGCTGATGAATTATTCCCGTCGAGTAAACAAATTTTCCTAATCTTTCTGTTCAAGCGCCATCTAC”, the binding signal is 0.986 RPM ratio (pull-down/input). Consider “GATGATTGTTCTCCCAGCTGATGAATTCACACGGTCGAGTAAACAAATTTTCCTAATCTTTCTGTTCAAGCGCCATCTAC”, for which the binding signal was 0.895 RPM ratio (pull-down/input).

In the case of “GATGATTGTTCTCCCAGCTGATGAATTCGGCAGATCGAGTAAACAAATTTTCCTAATCTTTCTGTTCAAGCGCCATCTAC”, the binding signal is 0.832 RPM ratio (pull-down/input). For the sequence “GATGATTGTTCTCCCAGCTGATGAATTGTTAAGTTCGAGTAAACAAATTTTCCTAATCTTTCTGTTCAAGCGCCATCTAC”, the binding signal is 1.15 RPM ratio (pull-down/input).

Consider “GATGATTGTTCTCCCAGCTGATGAATTGAATACCTCGAGTAAACAAATTTTCCTAATCTTTCTGTTCAAGCGCCATCTAC”, for which the binding signal was 0.893 RPM ratio (pull-down/input). The result for “GATGATTGTTCTCCCAGCTGATGAATTGTTAAGGTCGAGTAAACAAATTTTCCTAATCTTTCTGTTCAAGCGCCATCTAC” reads 0.982 RPM ratio (pull-down/input); that for “GATGATTGTTCTCCCAGCTGATGAATTTGCTCCGTCGAGTAAACAAATTTTCCTAATCTTTCTGTTCAAGCGCCATCTAC”, 0.907 RPM ratio (pull-down/input); that for “GATGATTGTTCTCCCAGCTGATGAATTCTGTTGATCGAGTAAACAAATTTTCCTAATCTTTCTGTTCAAGCGCCATCTAC”, 2.26 RPM ratio (pull-down/input). The value for “GATGATTGTTCTCCCAGCTGATGAATTGTCGAAGTCGAGTAAACAAATTTTCCTAATCTTTCTGTTCAAGCGCCATCTAC” was 1.02 RPM ratio (pull-down/input).

On to “GATGATTGTTCTCCCAGCTGATGAATTGTTATCGTCGAGTAAACAAATTTTCCTAATCTTTCTGTTCAAGCGCCATCTAC”, for which the binding signal was 1.57 RPM ratio (pull-down/input).

In the case of “GATGATTGTTCTCCCAGCTGATGAATTGCCGCCGTCGAGTAAACAAATTTTCCTAATCTTTCTGTTCAAGCGCCATCTAC”, the binding signal is 0.862 RPM ratio (pull-down/input).

Regarding “GATGATTGTTCTCCCAGCTGATGAATTTCCCCGCTCGAGTAAACAAATTTTCCTAATCTTTCTGTTCAAGCGCCATCTAC”, the binding signal is 0.724 RPM ratio (pull-down/input). With “GATGATTGTTCTCCCAGCTGATGAATTGCTACGGTCGAGTAAACAAATTTTCCTAATCTTTCTGTTCAAGCGCCATCTAC”, the binding signal was 0.997 RPM ratio (pull-down/input).

Consider “GATGATTGTTCTCCCAGCTGATGAATTACGCTGATCGAGTAAACAAATTTTCCTAATCTTTCTGTTCAAGCGCCATCTAC”, for which the binding signal was 0.941 RPM ratio (pull-down/input).

For the sequence “GATGATTGTTCTCCCAGCTGATGAATTTCGTGTTTCGAGTAAACAAATTTTCCTAATCTTTCTGTTCAAGCGCCATCTAC”, the binding signal was 1.02 RPM ratio (pull-down/input). Take “GATGATTGTTCTCCCAGCTGATGAATTCTACCATTCGAGTAAACAAATTTTCCTAATCTTTCTGTTCAAGCGCCATCTAC”: the binding signal was 0.894 RPM ratio (pull-down/input). As to “GATGATTGTTCTCCCAGCTGATGAATTAAGTTACTCGAGTAAACAAATTTTCCTAATCTTTCTGTTCAAGCGCCATCTAC”, the binding signal is 1.03 RPM ratio (pull-down/input). In the case of “GATGATTGTTCTCCCAGCTGATGAATTGGGCGCCTCGAGTAAACAAATTTTCCTAATCTTTCTGTTCAAGCGCCATCTAC”, the binding signal is 0.918 RPM ratio (pull-down/input). For the sequence “GATGATTGTTCTCCCAGCTGATGAATTTCATCCATCGAGTAAACAAATTTTCCTAATCTTTCTGTTCAAGCGCCATCTAC”, the binding signal was 0.911 RPM ratio (pull-down/input). On to “GATGATTGTTCTCCCAGCTGATGAATTCTGGATCTCGAGTAAACAAATTTTCCTAATCTTTCTGTTCAAGCGCCATCTAC”, for which the binding signal was 0.751 RPM ratio (pull-down/input). On to “GATGATTGTTCTCCCAGCTGATGAATTCAACCTCTCGAGTAAACAAATTTTCCTAATCTTTCTGTTCAAGCGCCATCTAC”, for which the binding signal was 0.787 RPM ratio (pull-down/input). Take “GATGATTGTTCTCCCAGCTGATGAATTTCTAGAATCGAGTAAACAAATTTTCCTAATCTTTCTGTTCAAGCGCCATCTAC”: the binding signal is 0.968 RPM ratio (pull-down/input). Regarding “GATGATTGTTCTCCCAGCTGATGAATTGCTGCAGTCGAGTAAACAAATTTTCCTAATCTTTCTGTTCAAGCGCCATCTAC”, the binding signal was 0.994 RPM ratio (pull-down/input). Consider “GATGATTGTTCTCCCAGCTGATGAATTTGGGAAGTCGAGTAAACAAATTTTCCTAATCTTTCTGTTCAAGCGCCATCTAC”, for which the binding signal is 0.833 RPM ratio (pull-down/input).

Take “GATGATTGTTCTCCCAGCTGATGAATTACGAAAATCGAGTAAACAAATTTTCCTAATCTTTCTGTTCAAGCGCCATCTAC”: the binding signal is 1.23 RPM ratio (pull-down/input). The result for “GATGATTGTTCTCCCAGCTGATGAATTCTTTTCTTCGAGTAAACAAATTTTCCTAATCTTTCTGTTCAAGCGCCATCTAC” reads 0.985 RPM ratio (pull-down/input); that for “GATGATTGTTCTCCCAGCTGATGAATTTCGGCATTCGAGTAAACAAATTTTCCTAATCTTTCTGTTCAAGCGCCATCTAC”, 1.09 RPM ratio (pull-down/input).

The record behind these values is article PMC12820563, “FoxP3 forms a head-to-head dimer in vivo and stabilizes its multimerization on adjacent microsatellites”.
